{"source": "PubChem BioAssay", "note": "The shares of active, inactive and inconclusive entries below differ from those in the screen. The source made the active and inactive calls.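 How the source made its calls: active means viability at or below 27.92% in each of two runs, the all-compound median minus 4 SD; inconclusive means no clear call, values can overlap the other calls; inactive means the rest.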"}
{"test": "viability of PTEN-null HCT116 cells – cell-based, HCT116 clonal line, CellTiter-Glo, pilot screen (AID 824);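 further: 0% = 20 µM Hyamine control and 100% = vehicle cell control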", "conditions": "HCT116 PTEN-deleted viability, 60 h, at 10 µM, active compounds read low"}
{"smiles": "CC(=O)NCCN=Cc1sc2ccccc2c1O", "viability": "inconclusive: 96.7%"}
{"smiles": "c1nc(NCC2(N3CCOCC3)CCCCC2)c2ccsc2n1", "viability": "inconclusive: 84.8%"}
{"smiles": "O=C1CC(N2CCN(Cc3ccc4c(c3)OCO4)CC2)C(=O)N1Cc1ccc(N2CCCC2=O)cc1", "note": "(stereo not given)", "viability": "inconclusive: 96.6%"}
{"smiles": "O=c1nc2s/c(=C\\c3ccco3)c(=O)n2nc1Cc1ccccc1", "viability": "inactive: 94.8%"}
{"smiles": "C=CCOC(=O)CCCC(=O)NC1CCCCC1", "viability": "inconclusive: 102%"}
{"smiles": "Cc1ccc(-c2nnc(SCC(=O)Nc3ccccc3F)o2)cc1", "viability": "inactive: 37.8%"}
{"smiles": "CC(=O)Nc1cc(OC(=O)c2ccco2)cc(OC(=O)c2ccco2)c1", "viability": "inconclusive: 94.8%"}
{"smiles": "COc1ccc(NC(=O)c2cncc(Br)c2)c(S(=O)(=O)N2CCOCC2)c1", "viability": "inconclusive: 99.8%"}
{"smiles": "CC1CCN(c2c(NCc3ccc(C(=O)N4c5ccccc5CC4C)cc3)c(=O)c2=O)CC1", "note": "(stereo not given)", "viability": "inactive: 66.8%"}
{"smiles": "OCCN1CCN(c2ncnc3c2sc2nc(N4CCOCC4)c4c(c23)CCC4)CC1", "viability": "inconclusive: 73.9%"}
{"smiles": "CCOC(=O)N1CCN(C(=O)CNS(=O)(=O)c2cccs2)CC1", "viability": "inconclusive: 89.3%"}
{"smiles": "Cc1ccccc1-c1nnc(SCC(=O)Nc2ccc(Cl)cc2)n1N", "viability": "inconclusive: 93.5%"}
{"smiles": "Nn1c(SCC(=O)NC2CCCCC2)nnc1-c1ccccc1", "viability": "inconclusive: 92.8%"}
{"smiles": "O=C(NCCOC(=O)c1ccc(C(=O)OCCNC(=O)c2ccccc2)o1)c1ccccc1", "viability": "inactive: 103%"}
{"smiles": "CCN(CC)CCOc1c(Br)ccc2c1sc1nc3n(c(=O)c12)CCC3", "viability": "inconclusive: 36.5%"}
{"smiles": "CCOC(=O)c1nc(-c2ccc3c(c2)OCO3)[nH]c1C", "viability": "inconclusive: 28.8%"}
{"smiles": "CCOCCCNC(=O)C1CCC(CNS(=O)(=O)c2ccc(F)cc2)CC1", "note": "(stereo not given)", "viability": "inconclusive: 91.4%"}
{"smiles": "Cc1ccc(S(=O)(=O)N2CCOCC2)cc1C(=O)Nc1nc(-c2cccnc2)cs1", "viability": "inconclusive: 99.3%"}
{"smiles": "Cc1ccc(OS(=O)Nc2cccc3nccnc23)cc1", "note": "(stereo not given)", "viability": "inactive: 55%"}
{"smiles": "O=C(Nc1cccc(Br)c1)c1cc2ccccc2o1", "viability": "inactive: 64.3%"}
{"smiles": "COc1cccc(C(=O)Nc2ccc(-c3nc4ccccc4o3)c(O)c2)c1", "viability": "inconclusive: 32.1%"}
{"smiles": "CCOC(=O)N1CCN(C(=O)CCc2nc3sc4c(c3c(=O)[nH]2)CCCC4)CC1", "viability": "inconclusive: 103%"}
{"smiles": "CCCOc1ccc(N2C(=O)CC(N3CCC(O)(c4cccc(C(F)(F)F)c4)CC3)C2=O)cc1", "note": "(stereo not given)", "viability": "inactive: 103%"}
{"smiles": "Cc1nn(CCO)c(C)c1Oc1ccccc1O", "viability": "inconclusive: 87.4%"}
{"smiles": "CSc1nnc(C2CCCN2)n1C", "note": "(stereo not given)", "viability": "inconclusive: 97.7%"}
{"smiles": "CCCCn1c(C(C)NC(=O)c2cccs2)nc2ccccc21", "note": "(stereo not given)", "viability": "inconclusive: 102%"}
{"smiles": "Cc1cccc(N2CCN(C(=O)c3ccc(NC(=O)C4CCCO4)cc3)CC2C)c1", "note": "(stereo not given)", "viability": "inconclusive: 101%"}
{"smiles": "CC1(C)OC(=O)C(=C2CCCN2)C(=O)O1", "viability": "inconclusive: 96%"}
{"smiles": "CN1CCc2c(sc3c2c(=O)n(-c2ccc(Cl)cc2)c2nncn32)C1", "viability": "inconclusive: 91.7%"}
{"smiles": "CCOC(=O)C1CCCN(C(=O)CNC(=O)Cn2ccc3ccccc3c2=O)C1", "note": "(stereo not given)", "viability": "inconclusive: 89.6%"}
{"smiles": "CC(c1ccccc1F)n1cc(C(=O)NCc2ccncc2)nn1", "note": "(stereo not given)", "viability": "inactive: 94.9%"}
{"smiles": "CCCc1ccc(OCC(O)CN2CCN(c3ccccc3)CC2)cc1", "note": "(stereo not given)", "viability": "inactive: 81.6%"}
{"smiles": "Cn1cnnc1SCc1ccc(C(=O)O)cc1", "viability": "inconclusive: 95.5%"}
{"smiles": "COc1cccc(NC(=O)Cn2cc3c(n2)CCCCC3)c1", "viability": "inactive: 92%"}
{"smiles": "CCc1ccc(C(=O)NC2CCCCC2)s1", "viability": "inconclusive: 99.9%"}
{"smiles": "Cc1ccc(C2/C(=C(/O)c3ccc(Br)cc3)C(=O)C(=O)N2Cc2ccco2)o1", "note": "(stereo not given)", "viability": "inactive: 65%"}
{"smiles": "Fc1ccc(-c2ccc(-c3nn4c(-c5ccco5)nnc4s3)o2)cc1", "viability": "inconclusive: 97.9%"}
{"smiles": "CCCn1cc(S(=O)(=O)CC(=O)N2CCc3ccccc32)c2ccccc21", "viability": "inconclusive: 89.7%"}
{"smiles": "OC(COCc1cccs1)CN1CCN(c2ccccn2)CC1", "note": "(stereo not given)", "viability": "inconclusive: 101%"}
{"smiles": "CCC1CCCCN1C(=O)CSc1nc2c([nH]c3ccccc32)c(=O)n1C", "note": "(stereo not given)", "viability": "inconclusive: 42.7%"}
